# Source: PMC12136788
# The other results are listed elsewhere or left out.
# B1: chr1:39494564:39494565:+_ENSG00000168653_ENST00000372967|hu_hu|hu_hu_hu_mus_True|1_68 (ssRNA)
# RNA: GGGAGUUCUACAGUCCGACGAUCAUGCAUUCGCCUCAUCGUUUUGUACCGAAGCAAGCACUCUUCGAAAUCAUCAUACUCUAUCUUGCACUCCUUUUUCGCCCGGGUCCCACCGAUCCCGUGUGCACACUCUAUCCAUUCUUUCAACAGAGGAUUGAGCAUCA
# B2: 57685957_57686077_494_CDS_ENSMUSG00000054843_ENSMUST00000077282|mouse|control|control (ssRNA)
# RNA: GGGAGUUCUACAGUCCGACGAUCGCAGGUGGAGUUGACACAGCGACCGGAGAAGCAGGAGCCAGUCCUCUCGCAGGGCUUGGACUGGGACACCUGAGCAUAGAGCGCCAGGUAGAGGAAGCCAUAGCACAGCAGCCAGCUGUUCAACAGAGGAUUGAGCAUCA
# B3: chr2:202488911:202488912:-_ENSG00000155755_ENST00000286196|hu_mus|hu_hu_hu_mus_False|1_98 (ssRNA)
# RNA: GGGAGUUCUACAGUCCGACGAUCAUUGAAACAUUUUCAUAAUAUUGCAGUAGCAUUUCAGCAUUAUGUAACAAAAGCUCAAUUGUAAAUACAUGUAUCUUAUAAAAAUACACUUAAAAACACGAGUGGGGAGCGCACAAAUACCAACAGAGGAUUGAGCAUCA
# B4: chr4:57314706:57314707:+_ENSG00000128050_ENST00000264221|hu_mus|hu_hu_hu_mus_True|38_48 (ssRNA)
# RNA: GGGAGUUCUACAGUCCGACGAUCCAGAAUUUCAAAAAUAGCUUGUGUGGCAUGACUCAUGAUGUCCACUUCAGUCUGCCCUAUAACAAGUCCAGCAAAGCAAAAUUUUGCAGCAAUGAGUUGCUCCUCAGACCACUGUGGAUCCAACAGAGGAUUGAGCAUCA
# B5: chr7:125879632:125879633:+_ENSMUSG00000033904_ENSMUST00000106557|mus_mus|motif|central (ssRNA)
# RNA: GGGAGUUCUACAGUCCGACGAUCUAUUACUAUGUUCUCUGAGAUCCGGAUUGCUUAUUAAAUAGCCCUUUAUUCUCUCCGGUGUAAAGCAUGCUAGAAAAAGAAGACUGAAAAAACAAACAAUAUAGACUAACUAGAACUAGCCAACAGAGGAUUGAGCAUCA
# B6: chr2:15737528:15737529:+_ENSG00000079785_ENST00000233084|hu_hu|FALSE|FALSE (ssRNA)
# RNA: GGGAGUUCUACAGUCCGACGAUCUUUAAUUGUUGUUUUUCCUUUUUUGCCUUCCUGUUGGUCUUUCAGAGUUUCAUAAACUAUCUGGAUAACUGGAAUACUAAAAGCACCAGUUUUGCCACUUCCUGUUUCUGCAGCCAUAAGCAACAGAGGAUUGAGCAUCA
# B7: 36003783_36003903_808_CDS_ENSMUSG00000031529_ENSMUST00000033929|mouse|control|control (ssRNA)
# RNA: GGGAGUUCUACAGUCCGACGAUCUUCAUGCAGUGGUGUAUAGUUCCAGUUAUCUCUGGCAUUCGGAUCUGCUCCUUGACACAGUAACAGACUCACAACCUCAGCAUGGCCGAAAGAGCAGGCAUUAUGAAGUGGGAUGAGACCCAACAGAGGAUUGAGCAUCA
# B8: chr18:13845789:13845790:-_ENSMUSG00000024420_ENSMUST00000025288|mus_mus|motif|central (ssRNA)
# RNA: GGGAGUUCUACAGUCCGACGAUCAGAACCAUGGGGCAGUGACCCUGCGUUGUGAUGCUGGAGAUGUGGCUGUCACAGGCGGGUCCAUUGGUGACAAGGGGUCACACAUCCAUCAGUCCAGGUUGCAUUUUUCUUACCUCAAAGCAACAGAGGAUUGAGCAUCA
# B9: chr12:111929536:111929537:-_ENSMUSG00000021270_ENSMUST00000094361|mus_mus|FALSE|FALSE (ssRNA)
# RNA: GGGAGUUCUACAGUCCGACGAUCUAAGAUGUAAUUUAAGCCAUCUUAAUUUGGUCUCCUAAGGAAUCCAGCUCAACAGCUAAACACUUCAGACCAGAGCAAACAUGAACAGUAGGUUACGUUACGUCUUAUAACAAACGCUCUCAACAGAGGAUUGAGCAUCA
# B10: chr2:122485053:122485054:-_ENSG00000155438_ENST00000285814|hu_hu|FALSE|FALSE (ssRNA)
# RNA: GGGAGUUCUACAGUCCGACGAUCUCAACUUUCUAUCCAGGCAGAGUAAACUAAGGAGAGCUAUGAAAUAUCAAAAGAAAACUAGAGGCCAGGACAAAGAGGCAAUGUCAGCCAAGCCACUGCAAGAUGGUAUGCACCCCUGUACAACAGAGGAUUGAGCAUCA
# B11: chr1:63223577:63223578:+_ENSMUSG00000025967_ENSMUST00000129339|mus_mus|motif|central (ssRNA)
# RNA: GGGAGUUCUACAGUCCGACGAUCAAAGGUCAAGGUCCGUUCCUAGUCUCGGUCCUCCGCGUACCACUGCGACUUGGUAACGGAAGGGCCCACAGGUCGUCCGCCGGCCUUCCCUUGUCUUUGGAAGAAAAUUAAUAAAGGAGGCAACAGAGGAUUGAGCAUCA
# B12: chr16:70566459:70566460:+_ENSG00000189091_ENST00000302516|hu_hu|FALSE|FALSE (ssRNA)
# RNA: GGGAGUUCUACAGUCCGACGAUCAAGGAAGUUGCCGUGUUCCUCCAAAGGUUCACUGUAUUUUCGGACCACAUGAUUUAAACCAAGGUCUAGCUCAUAGAAAGUAAGUGUCUGCUGGGUAUUAGCUGCUGCUUCCCCUGUUGGCAACAGAGGAUUGAGCAUCA
# B13: chr2:48026839:48026840:+_ENSG00000116062_ENST00000540021|hu_hu|hu_hu_hu_mus_False|1_38 (ssRNA)
# RNA: GGGAGUUCUACAGUCCGACGAUCAUAGUGAGCCACUAGCGUCCUAAAUCUGGAACAGUGGCGGUCAUCCGAAAACUGGCCGAUGAAAAACUUGCCCAGUGAAGUAUCCACAAAGCAAACACCAUACACACGAGUGUGGCCAGACAACAGAGGAUUGAGCAUCA
# B14: chr12:124105631:124105632:-_ENSG00000111361_ENST00000424014|hu_hu|FALSE|FALSE (ssRNA)
# RNA: GGGAGUUCUACAGUCCGACGAUCUCUUUCAUAGAGUUUAUUUGAAAAGAUGCUGAAUUUAUUCCCAAGUAUAAUUUUAAAAAGCUGUUUAGGACCCAAACAUAUUUAAACAUCUCUUACACAUACAGAAUUUCAGUUUACAAACAACAGAGGAUUGAGCAUCA
# Target: T1, UNK ZnF1-3 (human, UniProt Q9C0B0 31-174)
# T1 sequence: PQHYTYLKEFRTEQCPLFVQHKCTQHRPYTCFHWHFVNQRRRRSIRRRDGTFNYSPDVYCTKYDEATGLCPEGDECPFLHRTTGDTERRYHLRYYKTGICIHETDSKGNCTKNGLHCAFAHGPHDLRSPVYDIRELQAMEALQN
# Test: nsRBNS (natural sequence RNA bind-n-seq); RBNS binding buffer (assumed for nsRBNS): 25 mM Tris pH 7.5, 150 mM KCl, 3 mM MgCl2, 0.01% Triton X-100, 500 ug/ml BSA, 20 U/ml SUPERase-In, 4 C; UNK is unkempt and MSI1 is Musashi-1; names of the RNAs are library labels; protein concentration not given here; high values mean tight binding
row,Binder,binding signal [enrichment R]
1,B1,0.768
2,B2,1.56
3,B3,1.04
4,B4,1.05
5,B5,1.58
6,B6,0.539
7,B7,1.14
8,B8,0.819
9,B9,0.648
10,B10,1.61
11,B11,0.526
12,B12,0.727
13,B13,0.934
14,B14,1.01
